# Values marked as one replicate rest on one cluster of the flow cell; about a third of the high ones do not repeat.
# System: ATP
# Test: switch fluorescence ratio, 500 uM ATP over buffer (Cy3 cluster intensity, sum of 5 cycles each) (fold (ratio)); higher = stronger signal-on switching upon ATP binding; sequences stand for … in TCGTCGGCAGCGTCAGATGTGTATAAGAGACAGTTTTTTTTTTTTTTTTTTTTTTTTT…TC
# Details: aptamer strand: ATP DNA aptamer (quencher-CACCTGGGGGAGTATTGCGGAGGAAGG + anchor), 100 nM annealed; ATP concentration: 500 uM; one replicate
# In short: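 Exposure to 500 uM ATP lasted 15 min at 22 °C before imaging, and a selection-buffer image was taken beforehand, for Cy3-labelled switching-strand clusters on a modified Illumina MiSeq flow-cell annealed to 100 nM quencher-labelled ATP aptamer. Five buffer/ATP cycles were run with NaOH stripping and re-annealing between them. The fluorescence ratio per cluster is summed target-cycle over summed buffer-cycle Cy3 intensity, averaged per switch-domain sequence. Clusters outside 100-1000 RFU were excluded.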
row,Sequence,switch fluorescence ratio
1,GACGTGCTTA,0.993
2,TTGTTTAGA,0.994
3,AATGACTCAC,1.2
4,AACTTTGTCC,1.03
5,AGTAGCAGGG,1.04
6,TCTCGCGGTG,1.04
7,ACTGATCCCG,1.1
8,CGCACGAAAA,1.19
9,TTTGACAATC,1.23
10,GGGGCCGCGT,1.04
11,AAATAGGAAT,1.06
12,TCCGTGGCGA,1.73
13,GAAGCTGGAG,1.02
14,CGAACGTGTA,1.16
15,GTTGGGTGTC,1.11
16,TTCGCGCCAG,0.998
17,ATGTATGTAT,1.01
18,CCATAATGCA,1.04
19,ATTTGTCATT,1.01
20,GTGGAGACTC,1.01
21,GGCTGTTTGT,0.929
22,TGAGTCAGCG,1.06
23,AAGGTTGCAG,0.974
24,ACCACGGGTC,1.05
25,TTTATCTGTT,1.05

row,Sequence,switch fluorescence ratio
1,GGGTTACAAT,1
2,CTGCAGATGG,1.09
3,CTGTAGGGAA,1.01
4,AATTGTAATA,0.958
5,GCGTAGGTTT,0.981
6,AGGGTATAAT,0.991
7,GGGGGCAGC,0.999
8,TACGGATTGG,0.985
9,TCCTTGGTCT,0.999
10,ATATAAGTAC,1.41
11,CTTGAGGAAT,0.999
12,TTGCGCCTTA,0.984
13,GCTAGGCCAT,0.972
14,TATAATCTTC,1.06
15,GAATCAACGT,1.02
16,AATACTACCC,2.54
17,ACGACCCGAA,1.13
18,GAGAGATCCG,0.965
19,TTATGTACAT,0.97
20,TTGGAATACG,1.14
21,CACTCCAAGC,1.31
22,GGCAGACAAA,0.973
23,ACGAAACGAG,1.12
24,ACCTTTGAAT,1.04
25,TTTCTATGTG,0.943

row,Sequence,switch fluorescence ratio
1,TTGGACTGCT,1.01
2,CACCTCGGGA,1.02
3,CTCACGGTGG,0.963
4,CCGATCCATT,1.33
5,ATTCGCAGAT,1.06
6,TACCTTCAAG,1.04
7,CCAATCAGCA,1.1
8,TCAAGTCAT,1.06
9,CAGAGCAAAC,4.16
10,CTGTTTG,0.936
11,TTAATTGAAA,0.988
12,TTACTAGAGC,1.03
13,CGCGGCTATA,1.31
14,AAGCGGGGTT,1.04
15,TGATAATCAG,0.991
16,GTCAATCCTG,1.01
17,CTATAGGGGT,0.994
18,TGGTTCCTTT,0.967
19,CTAGTCGCTG,0.986
20,GCTATCCCGT,0.962
21,CCCGAACTGT,0.973
22,TACCGTCTCG,1
23,CTTGCAAGGG,1.04
24,AGGACGGGTG,1.01
25,CCCCAACAGA,1.08

row,Sequence,switch fluorescence ratio
1,GAGTATTGTG,0.99
2,AGGCCCTTTC,1.13
3,TGGCAACGTG,0.971
4,ACTACAAACC,1.18
5,CGTTACCCAT,1.04
6,TAAAAAGAGG,0.984
7,ACCATAGAGC,1.05
8,CGCCGGGGA,0.965
9,CCACTGAGTC,1.03
10,AGCCTGTTCA,0.983
11,TTCTTCCCTT,1.01
12,TCAGAACCGT,0.974
13,AGACCCTAGA,0.989
14,TCAGAACAGA,1.02
15,CGGTACATGA,0.965
16,TGCAGTCTC,1.01
17,ATCAGAAATC,1.05
18,GGATAATACA,0.992
19,CGTTGTAGTT,0.974
20,TCAATAGATT,1.02
21,GTCGGCGTGG,1.02
22,GAGTGCTAAG,1
23,CCCTCGATTT,1.02
24,TTCTCTATCG,0.954
25,ACCGGGCCGG,0.996

row,Sequence,switch fluorescence ratio
1,ACAACTGACG,1.11
2,GAAATCTTAT,0.999
3,TTGCTTCTGT,0.986
4,ACGGCACATA,1.53
5,GTCGTACCGA,1.02
6,TCTCGCTGC,2.42
7,AGGGAAAAG,0.98
8,GAGGGCTGGT,0.995
9,TTGAGCAAGA,1.48
10,CAGTTGATTG,1.02
11,TTAAGTTACT,1.04
12,TCGATGAGG,1.05
13,TCCGAATGGA,1.03
14,GTTAATATGC,0.946
15,GTTAGTGAGA,0.96
16,ACAAAAAGAA,0.974
17,CCGCTGCTCG,2.8
18,TTCAGGAGGC,1.01
19,CATTACATTC,1.01
20,TTGGGATATC,1
21,TATTCATAAC,0.989
22,GGGTTTTGAC,0.962
23,TTGCACTCTG,0.98
24,TGCAGGGTCC,0.96
25,CTCGTTGATA,1.03

row,Sequence,switch fluorescence ratio
1,GGGACGTCTA,1.03
2,AGCTAAACCG,1.04
3,TTATAGGGAA,1.01
4,GCAGTACAAT,1.09
5,GATGCCTCCA,1.02
6,ATCCGTGGCA,1.04
7,GCCAGAGAAG,0.985
8,TTGTATCGTA,0.993
9,TACCGATCTA,1.05
10,TGAACCTAGC,1.25
11,TGGCAGTCGC,1.02
12,AGCAGGGA,1.11
13,CAGGGTCGGA,0.971
14,ATCCTAAACC,1.04
15,GCGGTATCAG,0.921
16,TTTGCAAGAT,1.18
17,CAGGGTAGGT,1.01
18,AGTACTATAT,1.01
19,GCCCATAGGT,0.994
20,TGAAGCGGTG,1.05
21,TCGCGCGCGG,0.957
22,AGTGGCGTTA,0.997
23,TGCTTCCGG,1.19
24,CACATTAAAA,0.989
25,TAACCCTGCT,0.978

row,Sequence,switch fluorescence ratio
1,CAAACTATAT,1.02
2,TTGCCGACGA,1.01
3,TCTGTGGGTA,0.963
4,CAGGATCCAC,1
5,CGTACTTTAC,1.37
6,TAAGAGCTTA,0.999
7,CGTACACGTC,0.97
8,ACAATCACG,1.46
9,CGCTAGGCGT,0.991
10,CGGGAAAGTG,1.02
11,GCGAATGGGT,0.952
12,TAATGGTTTC,0.993
13,CCGAATTCGT,0.981
14,GTTGATCGGT,0.985
15,GGACGTTGCA,1.04
16,AGATCCAGTG,1.04
17,TACTATAGTA,0.997
18,TTCTTGCAGA,1.12
19,GGATTGATTG,1.01
20,CAATCGGATT,1.07
21,ACCTGCCTTG,1.12
22,GGGCGCTATA,1.32
23,CCTGGTTCCG,1.21
24,TGCTTGTTGC,1.01
25,CCTATTTTGA,0.966

row,Sequence,switch fluorescence ratio
1,ATCCTTCTGG,1.02
2,GGAGCAGAAG,2.31
3,TGTAGTGCAG,0.961
4,CATTACTTAG,1.01
5,TTCGGTCGTG,0.995
6,CGTTAGTGGG,1
7,AGAGACTGGG,1.02
8,AAGTATTGAA,0.957
9,AATCTTTGCG,1.04
10,CTCAATACA,1.32
11,CGAGGTACGC,1
12,GAACCGGTGG,1.04
13,GTTAACCTTG,1.03
14,TACACTCGGA,1.02
15,CCTGCGAATT,2.37
16,ACTATTGCTG,0.978
17,GGATAGTGCA,0.994
18,GGGTGGTCTT,1
19,ATTTTAACCC,1.05
20,GCGCGGTCTA,1.05
21,CCATGGGTCT,1
22,TACATCTAA,1.01
23,GTACTTAGTA,0.996
24,TGACGGTTTC,0.976
25,GATGCGCTTT,0.956

# Source: the supplement of paper PMC10126150
